Reference: the supplement of paper PMC4967469

What was measured:
Test in all cases: Viability of human cancer cell lines after 72 h of drug (GDSC screen)
OSU-03012 = compound: NCC(=O)Nc1ccc(-n2nc(C(F)(F)F)cc2-c2ccc3c(ccc4ccccc43)c2)cc1 [OSU-03012]; details: top dose 16 µM; top dose inferred
Protocol: (§1)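 Human cancer cell lines in 384-well plates, medium with 10% serum, drug for 72 h over a 256-fold dose range (nine 2-fold or five 4-fold steps up to the top dose). Adherent lines were fixed and stained with the nucleic acid dye Syto60, suspension lines read with resazurin; signal relative to control wells, capped at 0 and 100%. One two-parameter sigmoid per drug and line, fitted in a mixed model over all curves with the slope shared within a line.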

5-Fluorouracil = compound: O=c1[nH]cc(F)c(=O)[nH]1 [5-Fluorouracil]; details: top dose 32 µM; top dose inferred
Protocol: as §1

JNK-9L = compound: Fc1cc(-c2ccnc(Nc3ccc(-n4cnc(N5CCOCC5)n4)cc3)n2)cc(N2CCOCC2)c1 [JNK-9L]; details: top dose 5.12 µM; top dose inferred
Protocol: as §1

CUDC-101 = compound: C#Cc1cccc(Nc2ncnc3cc(OC)c(OCCCCCCC(=O)NO)cc23)c1 [CUDC-101]; details: top dose 5.12 µM; top dose inferred
Protocol: as §1

RDEA119 = compound: COc1cc(F)c(F)c(Nc2ccc(I)cc2F)c1NS(=O)(=O)C1(C[C@H](O)CO)CC1 [RDEA119]; details: top dose 5 µM, top dose inferred
Protocol: as §1

AC220 = compound: CC(C)(C)c1cc(NC(=O)Nc2ccc(-c3cn4c(n3)sc3cc(OCCN5CCOCC5)ccc34)cc2)no1 [AC220]; details: top dose 1.024 µM; top dose inferred
Protocol: as §1

QS11 = compound: OC[C@H](Cc1ccccc1)Nc1nc(Oc2ccc3c(c2)CCC3)nc2c1ncn2Cc1ccc(-c2ccccc2)cc1 [QS11]; details: top dose 10.24 µM
Protocol: as §1

Cell Line | AUC (OSU-03012) | IC50 (OSU-03012) [µM] | AUC (5-Fluorouracil) | IC50 (5-Fluorouracil) [µM] | AUC (JNK-9L) | IC50 (JNK-9L) [µM] | AUC (CUDC-101) | IC50 (CUDC-101) [µM] | AUC (RDEA119; screen: GDSC drug entry 1526) | IC50 (RDEA119; screen: GDSC drug entry 1526) [µM] | AUC (AC220) | IC50 (AC220) [µM] | AUC (QS11) | IC50 (QS11) [µM] | AUC (RDEA119; screen: GDSC drug entry 1014) | IC50 (RDEA119; screen: GDSC drug entry 1014) [µM]
SK-UT-1 (soft tissue, adherent) | 0.736 | 4.38 | 0.982 | > 32 | 0.36 | 0.137 | 0.944 | > 5.12 | 0.934 | > 5 | 0.978 | > 1.02 | 0.953 | > 10.2 | – | –
SKG-IIIa (cervix, adherent) | 0.852 | > 16 | 0.983 | > 32 | 0.784 | 3 | 0.871 | > 5.12 | 0.971 | > 5 | 0.983 | > 1.02 | 0.976 | > 10.2 | 0.864 | > 5
SKN (uterus, adherent) | 0.81 | 10.7 | 0.901 | > 32 | 0.7 | 1.33 | 0.587 | 0.582 | 0.822 | 3.76 | 0.914 | > 1.02 | 0.968 | > 10.2 | 0.804 | 3.15
SKN-3 (head and neck, adherent) | 0.983 | > 16 | 0.888 | > 32 | 0.638 | 0.829 | 0.437 | 0.209 | 0.794 | 2.79 | 0.983 | > 1.02 | 0.983 | > 10.2 | 0.735 | 1.68
SLVL (B-cell lymphoma, suspension) | 0.696 | 3.69 | 0.266 | 0.412 | 0.627 | 0.731 | 0.226 | 0.0481 | 0.929 | > 5 | 0.978 | > 1.02 | 0.962 | > 10.2 | 0.892 | > 5
SNB75 (glioma, adherent) | 0.842 | > 16 | 0.846 | > 32 | 0.498 | 0.314 | 0.715 | 1.75 | 0.782 | 3.22 | 0.965 | > 1.02 | 0.97 | > 10.2 | 0.836 | > 5
SNU-182 (liver, adherent) | 0.688 | 3.45 | 0.955 | > 32 | 0.646 | 0.827 | 0.335 | 0.109 | 0.853 | 4.19 | 0.986 | > 1.02 | 0.954 | > 10.2 | 0.929 | > 5
SNU-387 (liver, adherent) | 0.769 | 6.88 | 0.939 | > 32 | 0.507 | 0.335 | 0.37 | 0.133 | – | – | 0.984 | > 1.02 | 0.955 | > 10.2 | 0.592 | 0.58
SNU-398 (liver, adherent) | 0.606 | 1.97 | 0.783 | 14.1 | 0.201 | 0.0399 | 0.499 | 0.319 | 0.843 | 3.75 | 0.964 | > 1.02 | 0.932 | > 10.2 | – | –
SNU-423 (liver, adherent) | 0.736 | 5.36 | 0.716 | 9.16 | 0.541 | 0.421 | 0.38 | 0.141 | 0.797 | 2.83 | 0.979 | > 1.02 | 0.902 | > 10.2 | 0.835 | 4.12
SNU-449 (liver, adherent) | 0.752 | 5.77 | 0.923 | > 32 | 0.602 | 0.629 | 0.801 | 2.77 | 0.776 | 2.19 | 0.986 | > 1.02 | 0.534 | 0.797 | 0.829 | 3.53
SNU-C1 (large intestine, suspension) | 0.977 | > 16 | 0.809 | 27.4 | 0.522 | 0.377 | 0.723 | 1.88 | 0.406 | 0.153 | 0.975 | > 1.02 | 0.793 | 7.42 | 0.385 | 0.13
SR (lymphoid neoplasm, suspension) | 0.64 | 2.33 | 0.297 | 0.573 | 0.354 | 0.132 | 0.114 | 0.022 | 0.955 | > 5 | 0.981 | > 1.02 | 0.884 | 9.13 | 0.904 | > 5
ST486 (Burkitt lymphoma, suspension) | 0.769 | 5.39 | 0.591 | 3.45 | 0.412 | – | 0.14 | 0.029 | 0.989 | > 5 | 0.955 | > 1.02 | 0.94 | > 10.2 | 0.91 | > 5
SU8686 (pancreas, adherent) | 0.796 | 8.52 | 0.874 | > 32 | 0.581 | 0.55 | 0.685 | 1.13 | 0.921 | > 5 | 0.981 | > 1.02 | 0.952 | > 10.2 | – | –
SU-DHL-4 (B-cell lymphoma, suspension) | 0.747 | 3.97 | 0.943 | 29 | 0.573 | 0.481 | 0.191 | 0.0561 | 0.997 | > 5 | 0.997 | > 1.02 | 0.979 | > 10.2 | 0.997 | > 5
SU-DHL-5 (B-cell lymphoma, suspension) | 0.485 | 0.922 | 0.698 | 6.13 | 0.451 | 0.243 | 0.158 | 0.0434 | 0.915 | 4.09 | 0.961 | > 1.02 | 0.732 | 2.38 | 0.889 | 3.25

IC50 is the fitted dose that halves viability relative to control wells, and lower means more sensitive; where the fit passes the top or lowest dose, that dose stands as a limit. AUC, from the same fit, is the share of area under the viability curve across the 256-fold dose range; values near 1 show little effect. For some assays here: A top dose marked as inferred comes from the curve model; the source does not state it. For some assays here: Where an entry number is given, a second screen of the drug exists; the two often differ.
